The source of these data is the GPR68 mutational scans of Howard et al. (2025).

First the molecules themselves.
B1: GPR68, Q15743 (parent)
chain: MGNITADNSSMSCTIDHTIHQTLAPVVYVTVLVVGFPANCLSLYFGYLQIKARNELGVYLCNLTVADLFYICSLPFWLQYVLQHDNWSHGDLSCQVCGILLYENIYISVGFLCCISVDRYLAVAHPFRFHQFRTLKAAVGVSVVIWAKELLTSIYFLMHEEVIEDENQHRVCFEHYPIQAWQRAINYYRFLVGFLFPICLLLASYQGILRAVRRSHGTQKSRKDQIQRLVLSTVVIFLACFLPYHVLLLVRSVWEASCDFAKGVFNAYHFSLLLTSFNCVADPVLYCFVSETTHRDLARLRGACLAFLTCSRTGRAREAYPLGAPEASGKSGAQGEEPELLTKLHPAFQTPNSPGSGGFPTGRLA

The least precise scores are not listed. The source holds two more conditions with little spread; they are left out. In variant names, del marks residues removed and ins residues inserted between the two positions. For some of these results: The concentration of ogerin is not given here.

Variants of B1 are the subject of series [1]. Nature of the series: cAMP reporter score (Enrich2 score, wild type = 0); higher = more signal; HEK293T, FACS bins.
In series [2] the parent is B1. Nature of the series: surface expression score (Enrich2 score, wild type = 0); higher = more signal; HEK293T, FACS bins.

In the case of MGNITADNSSMECTIDHTIHQTLAPVVYVTVLVVGFPANCLSLYFGYLQIKARNELGVYLCNLTVADLFYICSLPFWLQYVLQHDNWSHGDLSCQVCGILLYENIYISVGFLCCISVDRYLAVAHPFRFHQFRTLKAAVGVSVVIWAKELLTSIYFLMHEEVIEDENQHRVCFEHYPIQAWQRAINYYRFLVGFLFPICLLLASYQGILRAVRRSHGTQKSRKDQIQRLVLSTVVIFLACFLPYHVLLLVRSVWEASCDFAKGVFNAYHFSLLLTSFNCVADPVLYCFVSETTHRDLARLRGACLAFLTCSRTGRAREAYPLGAPEASGKSGAQGEEPELLTKLHPAFQTPNSPGSGGFPTGRLA [S12E], the cAMP reporter score was -0.425 in series [1] (pH 5.5); -0.492 in series [1] (pH 6); -0.287 in series [1] (pH 6, modulator: ogerin); -0.549 in series [1] (pH 6.5, modulator: ogerin). Also, the surface expression score in series [2] was -0.344.

Consider MGNITADNSSMDCTIDHTIHQTLAPVVYVTVLVVGFPANCLSLYFGYLQIKARNELGVYLCNLTVADLFYICSLPFWLQYVLQHDNWSHGDLSCQVCGILLYENIYISVGFLCCISVDRYLAVAHPFRFHQFRTLKAAVGVSVVIWAKELLTSIYFLMHEEVIEDENQHRVCFEHYPIQAWQRAINYYRFLVGFLFPICLLLASYQGILRAVRRSHGTQKSRKDQIQRLVLSTVVIFLACFLPYHVLLLVRSVWEASCDFAKGVFNAYHFSLLLTSFNCVADPVLYCFVSETTHRDLARLRGACLAFLTCSRTGRAREAYPLGAPEASGKSGAQGEEPELLTKLHPAFQTPNSPGSGGFPTGRLA [S12D], for which the cAMP reporter score in series [1] (pH 5.5) was 0.324; in series [1] (pH 6) it was -0.852; in series [1] (pH 6, modulator: ogerin) it was 0.16; in series [1] (pH 6.5, modulator: ogerin), -0.129. The surface expression score in series [2] was 0.416.
